In PubChem BioAssay (Tox21):
Where “and” joins values, the source holds several entries; their conditions need not be identical. Equal entries are not always repeated. The shares of active, inactive and inconclusive entries below differ from those in the screen. For some assays here: Potencies of inconclusive entries are doubtful fits and often do not repeat. Calls of active or inactive are those of the source. Unless noted, calls follow the shape of the dose curve; as a rule, active = well fitted curve in the direction sought with a large enough effect in the repeat runs; inconclusive = weak or mixed curves; inactive = no such curve, though single readings can be large; an effect the other way counts as inactive or inconclusive.

Key:
[1] = qHTS assay to identify small molecule that activate the aryl hydrocarbon receptor (AhR) signaling pathway - cell viability counter screen (AID 743086); also: potency is read from the fitted curve at half-maximal effect; nearly all actives have a fitted effect of over 45% in size
Outline: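 Cytotoxicity counter screen: CellTiter-Fluor signal (30 min, 37 C) in 4000 HepG2 cells/well carrying the DRE-luciferase reporter, following 24 h compound exposure at 37 C.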

[2] = target: Peroxisome proliferator-activated receptor gamma (Homo sapiens) (UniProt P37231); assay: qHTS assay to identify small molecule agonists of the peroxisome proliferator-activated receptor gamma (PPARg) signaling pathway (AID 743094; active = well fitted activation curve with a large enough effect in the signal ratio in the repeat runs, not every such curve was filed as active; inconclusive = weak or mixed curves, or effect the other way; inactive = no such curve, though single readings can be large or run the other way; the % refers to the signal ratio; also: potency is read from the fitted curve at half-maximal effect; as to activation: % is scaled to controls: 0 for no effect and ±100 for the full control effect); conditions: HEK293H PPARg-UAS-bla, beta-lactamase FRET ratio, 17 h; activation: at 57 µM (top of the series) unless noted
Chain of UniProt P37231 (P37231 whole entry, looked up): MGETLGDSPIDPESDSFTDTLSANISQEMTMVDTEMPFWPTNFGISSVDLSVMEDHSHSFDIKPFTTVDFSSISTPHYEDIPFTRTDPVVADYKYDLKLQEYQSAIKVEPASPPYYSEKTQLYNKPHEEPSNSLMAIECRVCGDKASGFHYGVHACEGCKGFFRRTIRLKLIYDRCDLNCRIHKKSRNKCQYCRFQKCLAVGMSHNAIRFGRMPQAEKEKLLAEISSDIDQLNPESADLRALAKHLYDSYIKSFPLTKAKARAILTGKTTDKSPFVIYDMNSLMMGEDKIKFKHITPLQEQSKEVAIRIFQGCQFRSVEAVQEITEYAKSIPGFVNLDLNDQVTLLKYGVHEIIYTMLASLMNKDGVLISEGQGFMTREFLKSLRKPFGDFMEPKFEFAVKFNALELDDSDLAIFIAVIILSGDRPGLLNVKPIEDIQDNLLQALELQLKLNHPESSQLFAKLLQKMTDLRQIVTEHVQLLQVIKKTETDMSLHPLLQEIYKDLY
Outline: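 Agonism was assessed in a beta-lactamase reporter system, HEK293H cells with a stably integrated UAS-bla construct under PPARg control; the 17 h treatment at 37C preceded a 1 h room-temperature FRET substrate read.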

[3] = target: Peroxisome proliferator-activated receptor gamma (Homo sapiens) (UniProt P37231); assay: qHTS assay to identify small molecule antagonists of the peroxisome proliferator-activated receptor gamma (PPARg) signaling pathway (AID 743191; calls by dose curve; also: nearly all actives have a fitted effect of over 30% in size; also: potency is read from the fitted curve at half-maximal effect; as to ratio activity, negative = inhibition: % is scaled to controls: 0 for no effect and ±100 for the full control effect); conditions: HEK293H PPARg-UAS-bla, beta-lactamase ratio, antagonist, 17 h; ratio activity, negative = inhibition: at 62.6 µM (top of the series) unless noted
Outline: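 Beta-lactamase reporter under UAS control in HEK293H PPARg-bla cells; compound treatment 17 h at 37C. Read-out: fluorescence intensity after 1 h room-temperature incubation with LiveBLAzer B/G FRET substrate.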

[4] = qHTS assay for small molecule agonists of the antioxidant response element (ARE) signaling pathway (AID 743202; active = well fitted activation curve with a large enough effect in the signal ratio in the repeat runs, not every such curve was filed as active; inconclusive = weak or mixed curves, or effect the other way; inactive = no such curve, though single readings can be large or run the other way; the % refers to the signal ratio; also: potency is read from the fitted curve at half-maximal effect); conditions: HepG2 ARE-bla reporter, beta-lactamase FRET, 16 h; activation: at 73.3 µM (top of the series) unless noted
Outline: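 After 16 hours of compound treatment at 37 C, HepG2 cells with a stably integrated ARE-driven beta-lactamase reporter were loaded 2 hours at room temperature with LiveBLAzer B/G FRET substrate and fluorescence intensity measured.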

[5] = qHTS assay for small molecule activators of the heat shock response signaling pathway (AID 743210; active = well fitted activation curve with a large enough effect in the signal ratio in the repeat runs, with a control signal flat, not every such curve was filed as active; inconclusive = weak or mixed curves; the % refers to the signal ratio; also: potency is read from the fitted curve at half-maximal effect); conditions: HeLa HSE-bla reporter, beta-lactamase ratio, 5 h; activation: at 62.6 µM (top of the series) unless noted
Outline: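 Compound exposure lasted 5 h at 37 C in HeLa cells carrying a heat-shock-element-driven beta-lactamase reporter. Read-out: fluorescence intensity after 2.5 h room-temperature loading with LiveBLAzer B/G FRET substrate.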

[6] = qHTS assay to identify small molecule agonists of the peroxisome proliferator-activated receptor delta (PPARd) signaling pathway - cell viability counter screen (AID 743211); conditions: PPARd-bla HEK293H viability, CellTiter-Glo luminescence, 17 h; activity change, negative = cytotoxicity: at 62.6 µM (top of the series) unless noted; also: potency is read from the fitted curve at half-maximal effect; nearly all actives have a fitted effect of over 55% in size
Outline: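 Following 5 h plating at 37 C and 5% CO2, PPARd UAS-bla HEK293H cells took up test compounds for 17 h. Viability was quantified by luminescence 30 min after CellTiter-Glo addition at room temperature.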

[7] = qHTS assay to identify small molecule antagonists of the peroxisome proliferator-activated receptor delta (PPARd) signaling pathway - cell viability counter screen (AID 743213); conditions: PPARd-bla HEK293H viability, CellTiter-Glo luminescence, 17 h; viability change, negative = cytotoxic: at 62 µM (top of the series) unless noted; also: potency is read from the fitted curve at half-maximal effect; nearly all actives have a fitted effect of over 50% in size
Outline: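 CellTiter-Glo was added to PPARd-bla HEK293H wells following 17 h compound treatment in the presence of 300 nM L165041. Luminescence was recorded after 30 min at room temperature.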

[8] = target: Peroxisome proliferator-activated receptor delta (Homo sapiens) (UniProt Q03181); assay: qHTS assay to identify small molecule antagonists of the peroxisome proliferator-activated receptor delta (PPARd) signaling pathway (AID 743215; active = well fitted inhibition curve with a large enough effect in the signal ratio in the repeat runs, not every such curve was filed as active; inconclusive = weak or mixed curves, or effect the other way; inactive = no such curve, though single readings can be large or run the other way; the % refers to the signal ratio;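 also: cells stimulated with agonist L165041 at 300 nM final during compound exposure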; also: potency is read from the fitted curve at half-maximal effect; as to ratio activity, negative = inhibition: % is scaled to controls: 0 for no effect and ±100 for the full control effect); conditions: HEK293H PPARd-UAS-bla, beta-lactamase FRET ratio, antagonist, 17 h; ratio activity, negative = inhibition: at 62 µM (top of the series) unless noted
Chain of UniProt Q03181 (Q03181 whole entry, looked up): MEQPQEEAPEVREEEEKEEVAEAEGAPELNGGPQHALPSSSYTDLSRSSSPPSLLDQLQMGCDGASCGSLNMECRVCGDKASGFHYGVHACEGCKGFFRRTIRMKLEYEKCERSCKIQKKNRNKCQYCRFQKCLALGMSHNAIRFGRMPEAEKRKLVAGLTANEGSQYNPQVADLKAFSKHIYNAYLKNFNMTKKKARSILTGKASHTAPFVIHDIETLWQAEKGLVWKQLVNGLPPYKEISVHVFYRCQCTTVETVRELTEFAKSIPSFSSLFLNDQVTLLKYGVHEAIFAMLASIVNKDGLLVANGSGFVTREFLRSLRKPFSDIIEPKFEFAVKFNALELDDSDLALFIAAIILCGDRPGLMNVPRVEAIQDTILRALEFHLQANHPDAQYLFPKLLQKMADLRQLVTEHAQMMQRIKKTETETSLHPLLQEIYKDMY
Outline: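 Here, a reporter line (HEK293H, beta-lactamase under a UAS) measures PPARd signaling. Compounds are tested against agonist L165041 at 300 nM final concentration over 17 h at 37 C, with fluorescence read after substrate.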

[9] = target: Bile acid receptor (Homo sapiens) (UniProt Q96RI1); assay: qHTS assay to identify small molecule agonists of the farnesoid-X-receptor (FXR) signaling pathway (AID 743220; active = well fitted activation curve with a large enough effect in the signal ratio in the repeat runs, not every such curve was filed as active; inconclusive = weak or mixed curves, or effect the other way; the % refers to the signal ratio; also: potency is read from the fitted curve at half-maximal effect); conditions: HEK293T FXR-UAS-bla, beta-lactamase FRET ratio, 16 h; activation: at 62.6 µM (top of the series) unless noted
Chain of UniProt Q96RI1 (Q96RI1 whole entry, looked up): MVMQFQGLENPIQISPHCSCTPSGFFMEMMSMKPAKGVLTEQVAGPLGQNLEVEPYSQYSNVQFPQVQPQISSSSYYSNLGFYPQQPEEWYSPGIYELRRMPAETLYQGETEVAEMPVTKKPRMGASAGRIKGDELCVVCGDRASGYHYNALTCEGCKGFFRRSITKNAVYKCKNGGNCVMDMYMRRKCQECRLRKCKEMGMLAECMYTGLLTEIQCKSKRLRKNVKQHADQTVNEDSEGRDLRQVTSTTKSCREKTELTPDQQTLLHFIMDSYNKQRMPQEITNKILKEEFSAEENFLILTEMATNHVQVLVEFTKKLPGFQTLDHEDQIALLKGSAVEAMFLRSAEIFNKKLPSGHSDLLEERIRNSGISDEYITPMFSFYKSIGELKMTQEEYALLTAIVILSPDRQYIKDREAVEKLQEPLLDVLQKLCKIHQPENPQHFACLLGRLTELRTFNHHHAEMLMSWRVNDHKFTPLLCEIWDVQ
Outline: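 FXR-UAS-bla HEK 293T cells carrying a UAS-driven beta-lactamase reporter were plated for 5 h at 37C/5% CO2, then exposed to DMSO-dissolved Tox21 10K compounds for 16 h at 37C. A LiveBLAzer B/G FRET substrate was loaded for 2 h at room temperature before fluorescence reading.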

[10] = target: Vitamin D3 receptor (Homo sapiens) (UniProt P11473); assay: qHTS assay to identify small molecule antagonists of the vitamin D receptor (VDR) signaling pathway (AID 743223; active = well fitted inhibition curve with a large enough effect in the signal ratio in the repeat runs, not every such curve was filed as active; inconclusive = weak or mixed curves, or effect the other way; inactive = no such curve, though single readings can be large or run the other way; the % refers to the signal ratio; also: potency is read from the fitted curve at half-maximal effect); conditions: VDR-UAS-bla HEK293T, beta-lactamase FRET ratio, 16 h; activity change, negative = inhibition: at 61 µM (top of the series) unless noted
Chain of UniProt P11473 (P11473 whole entry, looked up): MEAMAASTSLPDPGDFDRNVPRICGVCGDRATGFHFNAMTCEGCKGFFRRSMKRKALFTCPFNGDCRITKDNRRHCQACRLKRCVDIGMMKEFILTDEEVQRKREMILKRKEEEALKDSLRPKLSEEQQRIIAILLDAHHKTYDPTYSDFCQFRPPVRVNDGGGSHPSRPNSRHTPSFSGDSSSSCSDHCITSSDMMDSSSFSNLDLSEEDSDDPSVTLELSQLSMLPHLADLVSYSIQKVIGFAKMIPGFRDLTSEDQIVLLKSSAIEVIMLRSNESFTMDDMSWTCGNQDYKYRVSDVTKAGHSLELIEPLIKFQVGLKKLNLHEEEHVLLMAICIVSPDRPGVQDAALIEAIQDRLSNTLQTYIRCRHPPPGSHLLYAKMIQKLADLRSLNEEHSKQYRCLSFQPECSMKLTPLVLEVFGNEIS
Outline: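 Beta-lactamase activity in VDR-bla cells is measured by FRET substrate fluorescence (2 h, room temperature) after cells spend 16 h at 37C with test compound and 3 nM final 1alpha,25-dihydroxyvitamin D3.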

[11] = qHTS assay to identify small molecule agonists of the vitamin D receptor (VDR) signaling pathway - cell viability counter screen (AID 743224); conditions: VDR-bla HEK293T viability, CellTiter-Glo luminescence, 16 h; activity change, negative = cytotoxicity: at 62.6 µM (top of the series); also: potency is read from the fitted curve at half-maximal effect; nearly all actives have a fitted effect of over 50% in size
Outline: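 CellTiter-Glo viability readout on VDR-bla cells, measured after 16 h of compound treatment at 37C in the same wells.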

[12] = qHTS assay to identify small molecule antagonists of the peroxisome proliferator-activated receptor gamma (PPARg) signaling pathway - cell viability counter screen (AID 743194); conditions: PPARg-bla HEK293H viability, CellTiter-Glo luminescence, 17 h, co-treated with 50 nM rosiglitazone; activity change, negative = cytotoxicity: at 62.6 µM (top of the series) unless noted; also: potency is read from the fitted curve at half-maximal effect; nearly all actives have a fitted effect of over 55% in size
Outline: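 Viability was measured as CellTiter-Glo luminescence in GeneBLAzer PPARg UAS-bla HEK293H cells. These cells had been exposed 17 h at 37 C to compounds together with rosiglitazone at 50 nM final, with the beta-lactamase readout taken in the same wells.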

[13] = qHTS assay for small molecule agonists of the antioxidant response element (ARE) signaling pathway - cell viability counter screen (AID 743203; calls by dose curve; also: potency is read from the fitted curve at half-maximal effect; nearly all actives have a fitted effect of over 55% in size); conditions: ARE-bla HepG2 viability, CellTiter-Glo luminescence, 16 h; viability change, negative = cytotoxic: at 73.3 µM (top of the series)
Outline: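 ATP content via CellTiter-Glo luminescence served as the viability measure. Cells: ARE-bla HepG2, 2,000 per well. Exposure: 16 hrs, 37C/5% CO2.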

[14] = target: Peroxisome proliferator-activated receptor delta (Homo sapiens) (UniProt Q03181); assay: qHTS assay to identify small molecule agonists of the peroxisome proliferator-activated receptor delta (PPARd) signaling pathway (AID 743212; calls by dose curve; also: potency is read from the fitted curve at half-maximal effect); conditions: HEK293H PPARd-UAS-bla, beta-lactamase FRET ratio, 17 h; activation: at 62.6 µM (top of the series) unless noted
Outline: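 Beta-lactamase reporter readout: a ratiometric FRET signal from the LiveBLAzer substrate after 2 h at room temperature. Compound exposure at 37 °C in PPARδ-bla HEK293H cells driven by an upstream activator sequence.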

[15] = target: Bile acid receptor (Homo sapiens) (UniProt Q96RI1); assay: qHTS assay to identify small molecule antagonists of the farnesoid-X-receptor (FXR) signaling pathway (AID 743217; active = well fitted inhibition curve with a large enough effect in the signal ratio in the repeat runs, not every such curve was filed as active; inconclusive = weak or mixed curves, or effect the other way; inactive = no such curve, though single readings can be large or run the other way; the % refers to the signal ratio; also: potency is read from the fitted curve at half-maximal effect); conditions: HEK293T FXR-UAS-bla, beta-lactamase ratio, CDCA-stimulated, 16 h; activity change, negative = inhibition: at 62.6 µM (top of the series) unless noted
Outline: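 Test compounds are pin-transferred onto FXR-bla HEK 293T cells, then chenodeoxycholic acid is added at 50 uM final. After 16 h at 37 °C, LiveBLAzer B/G substrate is applied for 2 h at room temperature and fluorescence read.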

[16] = qHTS assay to identify small molecule agonists of the farnesoid-X-receptor (FXR) signaling pathway - cell viability counter screen (AID 743218); conditions: FXR-bla HEK293T viability, CellTiter-Glo luminescence, 16 h; viability change, negative = cytotoxic: at 62.6 µM (top of the series) unless noted; also: potency is read from the fitted curve at half-maximal effect; nearly all actives have a fitted effect of over 45% in size
Outline: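 Quantitative HTS counter screen measuring ATP-based viability via CellTiter-Glo luminescence in HEK 293T cells carrying a UAS-driven beta-lactamase reporter, after 16 h compound exposure at 37 C.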

[17] = qHTS assay for small molecule activators of the heat shock response signaling pathway - cell viability counter screen (AID 743209); conditions: HSE-bla HeLa viability, CellTiter-Glo luminescence, 5 h; activity change, negative = cytotoxicity: at 62.6 µM (top of the series) unless noted; also: % is scaled to controls: 0 for no effect and ±100 for the full control effect; nearly all actives have a fitted effect of over 50% in size
Outline: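 Compounds dissolved in DMSO were added to overnight-plated HSE-bla HeLa cells and left 5 h at 37 C. Cell viability was quantified by luminescence using CellTiter-Glo.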

[18] = target: Vitamin D3 receptor (Homo sapiens) (UniProt P11473); assay: qHTS assay to identify small molecule agonists of the vitamin D receptor (VDR) signaling pathway (AID 743222; calls by dose curve; also: % is scaled to controls: 0 for no effect and ±100 for the full control effect); conditions: HEK293T VDR-UAS-bla, beta-lactamase FRET ratio, 16 h; activation: at 63.5 µM (top of the series) unless noted
Outline: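 Tox21 cell reporter format: VDR-bla line, 16 h compound exposure in 5% CO2 at 37C, then fluorescence intensity after 2 h with LiveBLAzer B/G FRET substrate.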
Tags tell the direction and shape of the fitted curve or compound fluorescence and quenching.

c1cc(OCC2CO2)cc(OCC2CO2)c1 (stereo not given)
inconclusive: Potency [1] 68 µM | Potency [2] 54.5 µM [single point] | Potency [3] 43.3 µM [rising, partial curve] | Potency [5] 57.8 µM | Potency [6] 54.5 µM [cytotoxic, single point] | Potency [7] 61.2 µM [cytotoxic, single point] | Potency [8] 21.7 µM [inhibitor, single point] | Potency [9] 68.6 µM [rising, single point] | Potency [10] 43.3 µM | Potency [11] 54.5 µM [cytotoxic, single point]
active: Potency [4] 30.4 µM

CN1CCCN(C(c2ccccc2)c2ccc(Cl)cc2)CC1 (stereo not given)
inconclusive: Potency [1] 21.1 µM [falling, partial curve] | activation [2] -11.7% | ratio activity, negative = inhibition [3] -23.3% | Potency [12] 26.6 µM [cytotoxic] | Potency [4] 33.5 µM [rising, single point] | Potency [13] 29.8 µM [cytotoxic, single point] | Potency [14] 26.6 µM | ratio activity, negative = inhibition [8] -55.6% | Potency [15] 26.6 µM [rising, partial curve, poor fit] | Potency [11] 11.9 µM [cytotoxic, single point]
active: Potency [7] 26.6 µM | Potency [16] 29.8 µM

Nc1c(N=Nc2ccc(-c3ccc(N=Nc4cc(S(=O)(=O)O)c5ccccc5c4N)cc3)cc2)cc(S(=O)(=O)O)c2ccccc12
inconclusive: Potency [2] 34.7 µM [inhibitor, partial curve] | ratio activity, negative = inhibition [3] -27.7% | activation [4] -4.48% | Potency [13] 61.1 µM | activation [18] -23.4%
inactive: Potency [17]
active: Potency [1] 21.1 µM and 9.68 µM

NC(=NCCCCCCN=C(N)/N=C(\N)Nc1ccc(Cl)cc1)/N=C(\N)Nc1ccc(Cl)cc1
inconclusive: Potency [1] 68 µM [falling, single point] [middle of 4 runs] | Potency [2] 54.4 µM [cytotoxic, partial curve] [middle of 4 runs] | Potency [3] 54.4 µM [cytotoxic] [middle of 4 runs] | Potency [11] 18.8 µM [cytotoxic, partial curve, poor fit]
19.8 µM (active) [middle of 5 runs]: Potency [7]
